The values below come from paper PMC5700166.

The list shows a part of the results, in another mix than the full data. The list includes weakly bound sequences.

The target of this experiment is T1, GST-Nv-NF-kB (Cys allele) (UniProt E5G601).
T1 sequence: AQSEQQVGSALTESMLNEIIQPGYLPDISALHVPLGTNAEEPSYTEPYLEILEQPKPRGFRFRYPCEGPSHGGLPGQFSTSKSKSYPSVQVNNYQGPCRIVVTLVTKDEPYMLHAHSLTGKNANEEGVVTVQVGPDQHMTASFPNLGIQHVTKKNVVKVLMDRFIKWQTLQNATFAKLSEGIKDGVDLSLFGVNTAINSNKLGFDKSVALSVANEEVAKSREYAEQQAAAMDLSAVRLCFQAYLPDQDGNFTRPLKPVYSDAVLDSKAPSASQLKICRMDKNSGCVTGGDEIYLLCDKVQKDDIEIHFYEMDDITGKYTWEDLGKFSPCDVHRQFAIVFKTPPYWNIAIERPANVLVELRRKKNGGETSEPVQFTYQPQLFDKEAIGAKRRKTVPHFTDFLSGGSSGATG
Briefly: protein-binding microarray (PBM). To be noted: PBM: ~300 nM protein, 6 mM HEPES pH 7.8, 80 mM KCl, 0.5 mM EDTA, 0.5 mM EGTA, 6% glycerol, 35 ng/ul poly-dIdC, 1% milk, 1 h, room temperature; Ap Aiptasia and Nv Nematostella (sea anemones) / Co Capsaspora / Aq Amphimedon (sponge) / Dm Drosophila / Hu human; RHD is the Rel homology domain; high values mean tight binding; most listed sequences are background and not binding sites; double strand, one strand shown.
“CCGATTAACATCAAGGAAAGCCCTGATGTTAATCGGGTCTTGATTCGCTTGACGCTGCTG” had a binding signal of 0.737 z-score.
As to “CCGATTAACATCACCCAACCCCCTGATGTTAATCGGGTCTTGATTCGCTTGACGCTGCTG”, the binding signal was found to be 2.94 z-score.
“CCGATTAACATCAGCCCCCCCCCTGATGTTAATCGGGTCTTGATTCGCTTGACGCTGCTG”: the binding signal came out at 5.13 z-score.
For “CCGATTAACATCAAACAATTCCCTGATGTTAATCGGGTCTTGATTCGCTTGACGCTGCTG” the value was 5.26 z-score; for “CCGATTAACATCAGGACACCCCCTGATGTTAATCGGGTCTTGATTCGCTTGACGCTGCTG”, 5.22 z-score; for “CCGATTAACATCAGAATTCCCCATGATGTTAATCGGGTCTTGATTCGCTTGACGCTGCTG”, 10.3 z-score.
As to “CCGATTAACATCAGGGAAACTACTGATGTTAATCGGGTCTTGATTCGCTTGACGCTGCTG”, the binding signal came out at 4.2 z-score.
In the case of “CCGATTAACATCAGGCCCCCCCCTGATGTTAATCGGGTCTTGATTCGCTTGACGCTGCTG”, the binding signal is 4.06 z-score.
For “CCGATTAACATCAGGGCCTCCCCTGATGTTAATCGGGTCTTGATTCGCTTGACGCTGCTG” the value was 4.43 z-score.
In turn, “CCGATTAACATCAGGGGAAACAATGATGTTAATCGGGTCTTGATTCGCTTGACGCTGCTG” yielded a binding signal of 7.25 z-score.
For “CCGATTAACATCAAGTCCCCCCCTGATGTTAATCGGGTCTTGATTCGCTTGACGCTGCTG” the value was 4.81 z-score; for “CCGATTAACATCACGTTATTCCCTGATGTTAATCGGGTCTTGATTCGCTTGACGCTGCTG”, 2.96 z-score; for “CCGATTAACATCAGATTTCCCCCTGATGTTAATCGGGTCTTGATTCGCTTGACGCTGCTG”, 8.96 z-score.
For “CCGATTAACATCACGGGTTTCCCTGATGTTAATCGGGTCTTGATTCGCTTGACGCTGCTG” the value was 4.58 z-score.
Then “CCGATTAACATCAGGGGTTTTTATGATGTTAATCGGGTCTTGATTCGCTTGACGCTGCTG”, with 8.52 z-score; and “CCGATTAACATCACCCCAGCCCCTGATGTTAATCGGGTCTTGATTCGCTTGACGCTGCTG”, with 1.93 z-score.
“CCGATTAACATCAGGGGTAAAACTGATGTTAATCGGGTCTTGATTCGCTTGACGCTGCTG” displayed a binding signal of 1.97 z-score.
For the sequence “CCGATTAACATCAATATACCCCCTGATGTTAATCGGGTCTTGATTCGCTTGACGCTGCTG”, the binding signal came out at 4.24 z-score.
For “CCGATTAACATCAAGGGTATTCCTGATGTTAATCGGGTCTTGATTCGCTTGACGCTGCTG” the value was 5.81 z-score; for “CCGATTAACATCACAAAAAACCCTGATGTTAATCGGGTCTTGATTCGCTTGACGCTGCTG”, 4.37 z-score.
For “CCGATTAACATCAAAAATGCCCCTGATGTTAATCGGGTCTTGATTCGCTTGACGCTGCTG” the value was 6.79 z-score; for “CCGATTAACATCAGAACCCCCCCTGATGTTAATCGGGTCTTGATTCGCTTGACGCTGCTG”, 4.85 z-score.
Consider “CCGATTAACATCAAAACAGTCCCTGATGTTAATCGGGTCTTGATTCGCTTGACGCTGCTG”, for which the binding signal came to 5.79 z-score.
In turn, “CCGATTAACATCAAATTCCCGCCTGATGTTAATCGGGTCTTGATTCGCTTGACGCTGCTG” gave a binding signal of 4.23 z-score.
“CCGATTAACATCAAATCATCCCCTGATGTTAATCGGGTCTTGATTCGCTTGACGCTGCTG” gave a binding signal of 5.38 z-score.
Then “CCGATTAACATCAGAATTACCCATGATGTTAATCGGGTCTTGATTCGCTTGACGCTGCTG”, with 3.82 z-score; and “CCGATTAACATCAAGGAAGTCCCTGATGTTAATCGGGTCTTGATTCGCTTGACGCTGCTG”, with 5.94 z-score.
Sequence “CCGATTAACATCAAATGCCCCCCTGATGTTAATCGGGTCTTGATTCGCTTGACGCTGCTG” displayed a binding signal of 4.38 z-score.
For “CCGATTAACATCAGGAATTCCTATGATGTTAATCGGGTCTTGATTCGCTTGACGCTGCTG” the value was 0.117 z-score; for “CCGATTAACATCAGGGGAAAGGATGATGTTAATCGGGTCTTGATTCGCTTGACGCTGCTG”, 5.7 z-score.
For “CCGATTAACATCAAATTCCCAGGTGATGTTAATCGGGTCTTGATTCGCTTGACGCTGCTG” the value was 3.11 z-score; for “CCGATTAACATCAGGGCATTCCATGATGTTAATCGGGTCTTGATTCGCTTGACGCTGCTG”, 0.863 z-score.
For “CCGATTAACATCACGGTGTTTCCTGATGTTAATCGGGTCTTGATTCGCTTGACGCTGCTG”, the binding signal came out at 1.22 z-score.
Then “CCGATTAACATCACGAAACCCCCTGATGTTAATCGGGTCTTGATTCGCTTGACGCTGCTG”, with 6.39 z-score; and “CCGATTAACATCAAGGGGAATAATGATGTTAATCGGGTCTTGATTCGCTTGACGCTGCTG”, with 8.01 z-score; and “CCGATTAACATCAGGAGGTCCCCTGATGTTAATCGGGTCTTGATTCGCTTGACGCTGCTG”, with 3.71 z-score.
Then “CCGATTAACATCAAATATCCCCATGATGTTAATCGGGTCTTGATTCGCTTGACGCTGCTG”, with 6.83 z-score.
